From PubChem BioAssay AID504339 (National Center for Advancing Translational Sciences (NCATS), 2011)
About 17,000 (4.4%) of roughly 390,000 compounds were called active. The inconclusive results got no clear call from the source; some entries with a clear call stand among them for comparison. Calls come from the whole dose curve; as a rule, active = well fitted inhibition curve with a large enough effect; inconclusive = small, poorly fitted or top-dose-only effect; inactive = no such curve, though single readings can be large or run the other way. Potencies of inconclusive entries are doubtful fits and often do not repeat. Peptide text beside a SMILES is read from it. * marks the point of attachment. OBn = c1ccc(CO*)cc1

Target: Lysine-specific demethylase 4A (Homo sapiens) (UniProt O75164)
Sequence of UniProt O75164 (O75164 whole entry, looked up, the tested form may be a part): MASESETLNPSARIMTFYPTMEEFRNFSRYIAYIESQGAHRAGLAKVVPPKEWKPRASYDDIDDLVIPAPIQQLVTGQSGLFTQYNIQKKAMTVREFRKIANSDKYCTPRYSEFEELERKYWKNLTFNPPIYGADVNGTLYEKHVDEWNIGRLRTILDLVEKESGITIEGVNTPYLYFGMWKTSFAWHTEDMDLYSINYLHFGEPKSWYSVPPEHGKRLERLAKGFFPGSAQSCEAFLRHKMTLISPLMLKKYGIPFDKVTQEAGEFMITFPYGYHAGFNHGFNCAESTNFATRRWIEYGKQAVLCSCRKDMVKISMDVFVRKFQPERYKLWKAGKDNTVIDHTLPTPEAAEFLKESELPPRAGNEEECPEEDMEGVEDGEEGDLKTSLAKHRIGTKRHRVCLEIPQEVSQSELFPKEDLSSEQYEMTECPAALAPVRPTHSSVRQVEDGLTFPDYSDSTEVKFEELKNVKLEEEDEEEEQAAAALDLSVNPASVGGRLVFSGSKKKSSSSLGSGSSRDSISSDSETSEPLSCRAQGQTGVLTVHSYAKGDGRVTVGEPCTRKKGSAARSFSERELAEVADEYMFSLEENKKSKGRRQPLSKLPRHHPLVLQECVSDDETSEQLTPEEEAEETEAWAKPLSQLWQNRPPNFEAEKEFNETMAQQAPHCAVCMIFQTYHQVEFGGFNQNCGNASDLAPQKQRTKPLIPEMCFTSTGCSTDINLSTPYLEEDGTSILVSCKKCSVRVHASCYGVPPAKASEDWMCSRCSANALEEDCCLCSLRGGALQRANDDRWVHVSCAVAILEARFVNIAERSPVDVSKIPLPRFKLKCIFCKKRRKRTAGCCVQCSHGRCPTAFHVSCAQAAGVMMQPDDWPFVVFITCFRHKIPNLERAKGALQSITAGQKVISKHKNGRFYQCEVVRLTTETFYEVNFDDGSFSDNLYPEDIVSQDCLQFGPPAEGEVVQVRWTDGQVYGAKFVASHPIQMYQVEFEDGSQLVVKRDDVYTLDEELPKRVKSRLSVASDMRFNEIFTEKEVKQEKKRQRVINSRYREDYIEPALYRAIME
Test: qHTS Assay for Inhibitors of JMJD2A-Tudor Domain; note: nearly all actives have a fitted effect of over 50% in size
Conditions: AlphaScreen JMJD2A-Tudor / H3K4me3 peptide binding; activity change, negative = inhibition: at 114 µM (top of the series)
% is set by controls: 0 for no effect and ±100 for the full control effect; potency is the fitted concentration of half-maximal effect; tags give direction and shape of the fitted curve.

Question: With `CCN1/C(=C/c2cccc[n+]2C)Sc2ccc(OC)cc21` as the molecule, how does the Potency read?
Answer: active: 17.8 µM

Question: For `O=S(=O)(c1ccc(F)cc1)N1CC2CCCN2c2ccc(C(F)(F)F)cc21` (centres undefined), which “activity change, negative = inhibition” value is on record?
Answer: inactive: -9.56%

Question: With `CN(C)CCNC(=O)c1cccc2nc3c(ccc4ccccc43)nc12` as the molecule, how does the Potency read?
Answer: inconclusive: 89.1 µM [inhibitor, partial curve]

Question: Which “activity change, negative = inhibition” value does the source give for `CCOc1ccc(CCNC(=O)c2cccc(C#N)c2)cc1OCC` here?
Answer: inactive: -8.44%

Question: How did the Potency turn out when `Cn1c(=O)c2c(ncn2CCCC(=N)N2CCOCC2)n(C)c1=O` was run?
Answer: active: 50.1 µM

Question: Which Potency does the source give for `c1cc2cn[nH]c2cc1NC1CCCCCC1` here?
Answer: inconclusive: 79.4 µM [inhibitor, partial curve]

Question: How did the Potency turn out when `COC(=O)[C@H](Cc1ccccc1)NC(=O)[C@@H](N)CC(=O)OCc1ccccc1` (H-Asp(OBn)-Phe-OMe) was run?
Answer: inconclusive: 39.8 µM [inhibitor, single point]

Question: `COc1ccc(NC2CCCN(C(=O)CCC(=O)c3ccc(F)cc3)C2)cc1` (centres undefined) was tested. Which Potency did it give?
Answer: inconclusive: 39.8 µM [inhibitor, full curve, poor fit]

Question: How did the Potency turn out when `Cc1nn(C(=O)c2ccc(Br)cc2)c(C)c1S(=O)(=O)N1CCOCC1` was run?
Answer: inconclusive: 89.1 µM [inhibitor, single point]

Question: How did the “activity change, negative = inhibition” value turn out when `Cc1nn(C)c(C(=O)NNC(=S)NCC(C)C)c1Cl` was run?
Answer: inactive: -8.33%

Question: `CCOCCCNC(=O)CCc1nnc2n(CCC(C)C)c(=O)c3ccccc3n12` was tested. Which “activity change, negative = inhibition” value did it give?
Answer: inactive: -31.1%

Question: `CCN(CC)c1ccc(NC(=O)COC(=O)c2ccc3ccccc3n2)cc1` was tested. Which Potency did it give?
Answer: inconclusive: 17.8 µM [inhibitor, full curve]

Question: For `O=C(Nc1ccc(Nc2ccccc2)cc1)c1cccc(F)c1`, which Potency is on record?
Answer: inconclusive: 56.2 µM [inhibitor, partial curve]

Question: How did the “activity change, negative = inhibition” value turn out when `COC(=O)c1ccc2c(c1)N(Cc1ccc(F)cc1)C(=O)c1ccccc1S2` was run?
Answer: inactive: 1.92%

Question: For `CC(=O)c1ccc(NC(=O)c2nc3ccccc3nc2N2CCCCC2)cc1`, which Potency is on record?
Answer: inconclusive: 50.1 µM [inhibitor, partial curve]

Question: How did the Potency turn out when `O=C1Nc2ccc(C(=O)O)c(O)c2C1=O` was run?
Answer: active: 56.2 µM

Question: For `CCOC(=O)Nc1ccc(OC)c([N+](=O)[O-])c1`, which “activity change, negative = inhibition” value is on record?
Answer: inactive: -5.48%

Question: Which Potency does the source give for `COC(=O)c1cccc(Cn2c(Cl)c(/C=N/Nc3ccccc3C)sc2=O)c1` here?
Answer: inconclusive: 12.6 µM [inhibitor, full curve, poor fit]

Question: For `OC[C@H]1O[C@@H]2O[C@H]3[C@H](O)[C@@H](O)[C@@H](O[C@H]4[C@H](O)[C@@H](O)[C@@H](O[C@H]5[C@H](O)[C@@H](O)[C@@H](O[C@H]6[C@H](O)[C@@H](O)[C@@H](O[C@H]7[C@H](O)[C@@H](O)[C@@H](O[C@H]1[C@H](O)[C@H]2O)O[C@@H]7CO)O[C@@H]6CO)O[C@@H]5CO)O[C@@H]4CO)O[C@@H]3CO`, which Potency is on record?
Answer: inconclusive: 79.4 µM [inhibitor, partial curve]

Question: For `Cc1cc(-c2nc3c4c5c(sc4[nH]c(=O)n3n2)CCC5)c(C)o1`, which Potency is on record?
Answer: inconclusive: 35.5 µM [inhibitor, full curve]

Question: `COc1cc(CN2CCC(C(=O)N3CCN(c4ccccc4F)CC3)CC2)ccc1O` was tested. Which Potency did it give?
Answer: active: 2.51 µM

Question: For `O=C(CCS(=O)(=O)c1ccc(Br)s1)Nc1ccccc1Br`, which “activity change, negative = inhibition” value is on record?
Answer: inactive: -19.7%

Question: For `CCN(c1ccccc1)S(=O)(=O)c1c[nH]c2ccc([N+](=O)[O-])cc12`, which Potency is on record?
Answer: inconclusive: 89.1 µM [inhibitor, single point]

Question: With `Cn1c(-c2cc3c(C(F)(F)F)nn(C)c3s2)n[nH]c1=S` as the molecule, how does the Potency read?
Answer: active: 11.2 µM

Question: Which “activity change, negative = inhibition” value does the source give for `CCC(C)c1ccc(S(=O)(=O)Nc2cccnc2)cc1` (centres undefined) here?
Answer: inactive: -30.2%

Question: `COc1ccccc1-n1c(SCC(=O)c2ccc(O)cc2O)nc2cc([N+](=O)[O-])ccc21` was tested. Which Potency did it give?
Answer: active: 25.1 µM

Question: For `COc1cccc(CNC(=O)c2ccc3c(c2)c(C)c(C)n3Cc2ccccc2)c1`, which Potency is on record?
Answer: inconclusive: 11.2 µM [inhibitor, full curve, poor fit]

Question: `Cc1cc(N2CCOCC2)ccc1/C=C\[N+](=O)[O-]` was tested. Which “activity change, negative = inhibition” value did it give?
Answer: inactive: -13.8%

Question: With `O=C(CCN1C(=O)C2C3C=CC(C3)C2C1=O)Nc1ccccn1` (centres undefined) as the molecule, how does the “activity change, negative = inhibition” value read?
Answer: inactive: -13.8%

Question: `CCOc1ccccc1-c1nc(CN2CCCN(C(=O)c3ccco3)CC2)c(C)o1` was tested. Which “activity change, negative = inhibition” value did it give?
Answer: inactive: -9.49%

Question: How did the Potency turn out when `CCOC(=O)C1CCCN(Cc2ccc3c(c2)OCO3)C1` (centres undefined) was run?
Answer: active: 2.51 µM

Question: Which Potency does the source give for `COc1cc(/C=C2/SC(=S)N(CC(=O)Nc3cccnc3)C2=O)cc(OC)c1OC` here?
Answer: inconclusive: 20 µM [inhibitor, full curve]

Question: Which Potency does the source give for `Cc1cccc2cc(COC(=O)c3cccs3)c(=O)[nH]c12` here?
Answer: inconclusive: 89.1 µM [inhibitor, single point]

Question: How did the Potency turn out when `COC(=O)c1ccc(C2c3c(-c4ccccc4O)n[nH]c3C(=O)N2Cc2cccnc2)cc1` (centres undefined) was run?
Answer: inconclusive: 44.7 µM [inhibitor, partial curve]

Question: `CCOc1ccc(N2C(=O)CC(SCc3nc4ccccc4[nH]3)C2=O)cc1` (centres undefined) was tested. Which “activity change, negative = inhibition” value did it give?
Answer: inactive: -4.12%

Question: `COc1ccc(/C=C/C(=O)c2ccccc2)cc1COc1ccc(F)cc1` was tested. Which “activity change, negative = inhibition” value did it give?
Answer: inactive: -5.22%

Question: How did the “activity change, negative = inhibition” value turn out when `CCOc1cc2[nH]c(=S)n(Cc3ccc(C(=O)NCCCOC)cc3)c(=O)c2cc1OCC` was run?
Answer: inactive: -2.85%

Question: With `Cn1ccnc1SCC(=O)c1c[nH]c2ccccc12` as the molecule, how does the Potency read?
Answer: inconclusive: 35.5 µM [inhibitor, single point]

Question: With `COc1cccc(C(=O)NCC(c2cccs2)N2CCc3ccccc32)c1` (centres undefined) as the molecule, how does the Potency read?
Answer: inconclusive: 28.2 µM [inhibitor, full curve]

Question: With `c1ccc(C2CCC(N3CCN(c4ccccc4)CC3)CC2)cc1` (centres undefined) as the molecule, how does the Potency read?
Answer: inconclusive: 35.5 µM [inhibitor, partial curve]

Question: Which Potency does the source give for `O=C(NCCN1C(=O)S/C(=C\c2cccnc2)C1=O)c1cc(S(=O)(=O)N2CCOCC2)ccc1F` here?
Answer: inconclusive: 100 µM [inhibitor, single point]

Question: Which Potency does the source give for `COc1ccc(N2CCN(Cc3nc(N)nc(Nc4ccc(C)c(Cl)c4)n3)CC2)cc1` here?
Answer: active: 35.5 µM

Question: For `Cc1ccc(-c2nc(NC(=O)CSc3cc(C)c4ccccc4n3)ns2)cc1`, which Potency is on record?
Answer: inconclusive: 100 µM [inhibitor, partial curve]

Question: `Cc1cc(C)c(NC(=O)c2cc(S(=O)(=O)N3CCC4(CC3)OCCO4)ccc2F)c(C)c1` was tested. Which “activity change, negative = inhibition” value did it give?
Answer: inactive: -14.4%

Question: For `Cc1[nH]nc2c1C(c1ccc(-c3ccc(Cl)cc3)o1)C(C#N)=C(N)O2` (centres undefined), which Potency is on record?
Answer: inconclusive: 44.7 µM [inhibitor, partial curve]

Question: With `Cc1ccc(-c2csc(NC(=O)CN3CCC(C(N)=O)CC3)n2)cc1` as the molecule, how does the Potency read?
Answer: inconclusive: 31.6 µM [inhibitor, partial curve]

Question: `COC(=O)c1ccc(NC(=O)CC2C(=O)N(c3cccc(OC)c3)C(=O)N2Cc2cccs2)cc1` (centres undefined) was tested. Which “activity change, negative = inhibition” value did it give?
Answer: inactive: 0.69%

Question: `CC(C)c1nc(N2CCN(C(=O)c3ccco3)CC2)c2c3c(sc2n1)CCCC3` was tested. Which Potency did it give?
Answer: inconclusive: 44.7 µM [inhibitor, partial curve]

Question: For `Cc1cc(C)nc(N/N=C/c2ccccc2OCC(=O)O)n1`, which Potency is on record?
Answer: active: 2.51 µM

Question: `COc1cc(/C=N/N=C(N)N)ccc1OCc1ccccc1Cl` was tested. Which Potency did it give?
Answer: inconclusive: 44.7 µM [inhibitor, partial curve]

Question: Which Potency does the source give for `Cc1ccc(Oc2nc(CN3CCOCC3)nc3sc4c(c23)CCC(C)C4)cc1` (centres undefined) here?
Answer: inconclusive: 50.1 µM [inhibitor, partial curve]

Question: Which Potency does the source give for `COc1cccc(-n2c(C)cc(/C=C3/C(=N)N4C(=NC3=O)SN=C4S(C)(=O)=O)c2C)c1` here?
Answer: inconclusive: 25.1 µM [inhibitor, single point]

Question: `Cc1ccc(C)c(N2CCN(S(=O)(=O)c3ccc4[nH]c5c(c4c3)CCCCC5)CC2)c1` was tested. Which Potency did it give?
Answer: inconclusive: 11.2 µM [inhibitor, full curve]

Question: For `O=C(Nc1cccc([N+](=O)[O-])c1)c1cnccn1`, which Potency is on record?
Answer: inconclusive: 70.8 µM [inhibitor, single point]

Question: Which Potency does the source give for `O=C1CCN(C(=O)Nc2ccccc2)N1` here?
Answer: inconclusive: 20 µM [inhibitor, partial curve, poor fit]

Question: With `Cn1c(-c2ccsc2)c(-c2cccs2)c2cc(-c3ccc4[nH]ccc4c3)ccc21` as the molecule, how does the Potency read?
Answer: inconclusive: 89.1 µM [inhibitor, partial curve]

Question: Which Potency does the source give for `COc1ccc(NC(=S)Nc2ccccc2OC)c(OC)c1` here?
Answer: inconclusive: 89.1 µM [inhibitor, partial curve]

Question: With `COc1ccc(CNc2ncc(-c3ccccc3)n2C)c2ccccc12` as the molecule, how does the Potency read?
Answer: active: 17.8 µM

Question: Which Potency does the source give for `NC(=O)c1ccc(C[C@H](C(=O)O)N2C(=O)c3ccc(C(=O)O)cc3C2=O)cc1` here?
Answer: inconclusive: 89.1 µM [inhibitor, single point]

Question: For `Nc1ccc(NC(=O)c2ccc(C(=O)Nc3ccc(N)cc3)cc2)cc1`, which Potency is on record?
Answer: active: 56.2 µM

Question: `COc1ccc(CNC(=O)CC2(CC(=O)O)CCCCC2)cc1` was tested. Which “activity change, negative = inhibition” value did it give?
Answer: inactive: -14.7%

Question: Which Potency does the source give for `CCOc1ccc(N)cc1OC` here?
Answer: inconclusive: 63.1 µM [inhibitor, partial curve]

Question: How did the Potency turn out when `COC(=O)c1cc2c(cc1Cl)SC(=NCCCN1CCOCC1)NS2(=O)=O` was run?
Answer: inconclusive: 89.1 µM [inhibitor, single point]

Question: Which Potency does the source give for `CC(C)(C)c1ccc(/C=C/C(=O)c2ccc(NC3=NCCCS3)cc2)cc1` here?
Answer: inconclusive: 39.8 µM [inhibitor, partial curve]

Question: For `CC(C)CC(NS(=O)(=O)c1ccccc1)C(=O)O` (centres undefined), which Potency is on record?
Answer: inconclusive: 100 µM [inhibitor, single point]

Question: How did the Potency turn out when `O=C(NC(=S)Nc1ccccn1)c1ccco1` was run?
Answer: inconclusive: 39.8 µM [inhibitor, single point]

Question: Which Potency does the source give for `O=C(O)CCCC(=O)Nc1ccc(OCc2nc3ccccc3s2)cc1` here?
Answer: inconclusive: 79.4 µM [inhibitor, single point]

Question: How did the Potency turn out when `CC(C)(C)OC(=O)N(CCc1ccccc1)Cc1cccc(OCc2cccc(NC(=O)c3ccccc3)c2)c1` was run?
Answer: inconclusive: 63.1 µM [inhibitor, partial curve]

Question: How did the Potency turn out when `COc1cc(/C=N/NC(=O)CC#N)cc(Br)c1O` was run?
Answer: active: 35.5 µM
